Test results as given in PubChem BioAssay AID1508623 (National Center for Advancing Translational Sciences (NCATS), 2021).
Hit rate of the full screen: of about 48,000 compounds, about 450 (0.94%) were called active. About 19% were inconclusive and are not listed. Calls come from the whole dose curve; as a rule, active = well fitted inhibition curve with a large enough effect; inconclusive = small, poorly fitted or top-dose-only effect; inactive = no such curve, though single readings can be large or run the other way. This is one part of the list.

Assay: Primary qHTS for Identification of Small Molecule Inhibitors of Huntingtin Promoter Activity; note: nearly all actives have a fitted effect of over 50% in size
Settings: HEK293 HTT promoter firefly luciferase reporter (activity 0% = vehicle and -100% = no light), 24 h; series mostly up to 57.5 µM; activity change, negative = inhibition: at the top concentration
Summary of the method: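 HEK293 luciferase promoter-reporter cells (2,500/well) plated 24 h, then compounds added at up to 57.5 uM final for 24 h at 37 °C. Firefly luminescence by Dual-Glo, normalized to vehicle (0%) and zero RLU (-100%).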
Potency is the fitted concentration of half-maximal effect.

Activity change, negative = inhibition, inactive:
COCCCNC(=O)N1CCN(c2nnc(C)c3c(C)n(-c4ccc(Cl)cc4)nc23)CC1 -2.88%, CCOc1cccc(CC(=O)N2CCc3c([nH]c4ccccc34)C2c2ccc(OC)cc2)c1OCC (configuration not stated) -21.2%, COc1ccc(Cn2c(C(=O)O)c(CNCCc3cccs3)c3ccc(OC)cc32)cc1 -23.1%, COc1ccc(-c2c(C)nn3c(C(F)(F)F)cc(C)nc23)cc1OC -21.7%, Cc1oc2ncn(C)c(=O)c2c1C(=O)N1CCN(c2ccc(Cl)cc2)CC1 -34.5%, COc1cccc(CNCCCSc2nnnn2C)c1 -18%, Cc1ccccc1CN1C(=O)c2ccccc2S(=O)c2ccc(C(=O)NCc3ccccc3)cc21 (configuration not stated) -28.8%, CC(C)Sc1ncc(Cl)c(C(=O)Nc2c(C(=O)Nc3ccccc3)oc3ccccc23)n1 -3.24%, Cc1nn(C)c2c1c(-c1ccccc1)cc(=O)n2Cc1c(F)cccc1Cl -7.27%, Cc1ccccc1Nc1c(-c2ccccc2O)nc2sccn12 -21.6%, CCc1cccc(NC(=O)c2sc3nc[nH]c(=O)c3c2C)c1 28.4%, CCc1ccc(NS(=O)(=O)c2ccc3[nH]cc(C(=O)N4CCCCCC4)c(=O)c3c2)cc1 21.1%, O=C1CN(C(=O)c2ccc(S(=O)(=O)N3CCCC3)cc2)C(c2ccc(F)cc2)c2cc(F)ccc2N1 (configuration not stated) -22.8%, CCOC(=O)Cc1ccc(NC(=O)N2CCC(CN3CCC(C)CC3)CC2)cc1 -17.4%, COc1cc(C2C(C(=O)Nc3ccc(C)cc3C)=C(C)Nc3nc(SCc4ccccc4)nn32)cc(OC)c1OC (configuration not stated) -14.3%, Cc1ccc(CNC(=O)c2cnn3c(C)c(Cc4c(F)cccc4Cl)c(C)nc23)cc1 -9.49%, Cc1ccc2oc3c(c(=O)c2c1)C(c1cccc(O)c1)N(CCCN1CCOCC1)C3=O (configuration not stated) -8.85%, Nc1[nH]c(=O)ncc1F, Cc1cccc(-c2nnc(SCC(=O)NC3CCCCC3)o2)c1 -29.8%, CCOc1ccc(CCNC(=O)c2ccc(C)c(-n3c(C)nc4cccnc43)c2)cc1OCC -14.9%, Cc1cc(Br)ccc1NC(=O)CN1C(=O)c2cccnc2Sc2ccccc21 -20.6%, COc1ccc(N(Cc2cccs2)C(=O)COc2ccc([N+](=O)[O-])cc2)cc1 -27.1%, CCOc1ccc(C(=O)Nc2cc(-c3ccccc3)no2)cc1 30.7%, CCN(Cc1ccccc1)C(=O)c1cc2ccc3cccnc3c2[nH]1 -1.09%, CCOc1ccccc1NC(=O)c1cc2ccc3cccnc3c2[nH]1 37.8%, O=C(O)C(Cc1cc(I)c(O)c(I)c1)c1ccccc1 (configuration not stated) -10.5%, CCCOc1cccc(C2c3c(oc4ccc(F)cc4c3=O)C(=O)N2Cc2ccc3c(c2)OCO3)c1 (configuration not stated) -6.57%, Cc1nc(-n2nc(C)c(Cc3ccc4c(c3)OCO4)c2C)sc1C(=O)Nc1ccc(Cl)cc1 -7.68%, Cc1cccc(Cn2cccc2CNS(=O)(=O)c2ccc(C)c(C)c2)c1 -25.5%, CCCCN(Cc1ccco1)C(=O)Cn1ncc2c([nH]c3ccccc32)c1=O -12.1%, CN1CCSc2ccc(C(=O)NCc3ccccc3)cc21 19.1%, CN1c2ccccc2C(=O)N2CCc3c([nH]c4ccccc34)C21 (configuration not stated) -2.8%, O=C(c1ccco1)n1nc(-c2ccc(Cl)cc2)nc1NCc1ccc(F)cc1 -17.1%, COc1ccc(C2C(C(=O)Nc3ccccc3)=C(C)Nc3nc(-c4ccccc4Cl)nn32)cc1OC (configuration not stated) -15.4%, CCOCCCNc1nc2cc(OC)c(OC)cc2c2nc(-c3ccccc3)nn12 -2.87%, CCOC(=O)c1scc(-c2ccc(C)cc2)c1S(=O)(=O)Nc1ccc(OC)c(Cl)c1 -31.3%, Cc1ccc(NC(=O)Cn2c(=O)n(CCC(=O)NCc3ccccc3Cl)c(=O)c3ccccc32)c(C)c1 -8.49%, Clc1ccccc1Nc1ncnc2c1nc1n2CCCCC1 -19.4%, O=C(Nc1ccc2nc(SCCOc3ccccc3)sc2c1)c1ccc2c(c1)OCO2 -3.35%, COc1cc2[nH]c(=O)n(CCCCCC(=O)N3CCN(c4ccc(Cl)cc4)CC3)c(=O)c2cc1OC -18.5%, Cc1cccc(Cn2c(=O)n(CC3CCC(C(=O)N4CCC(C)CC4)CC3)c(=O)c3sccc32)c1 (configuration not stated) 0.297%, O=C(CSc1cn(CC(=O)N2CCCC2)c2ccccc12)Nc1ccccc1C(F)(F)F -17.5%, Cc1ccc(CNC(=O)CN(c2cc(C)cc(C)c2)S(=O)(=O)c2c(C)noc2C)cc1 5.21%, COC(=O)c1ccccc1NC(=O)c1ccc2c(Cl)c3c(nc2c1)CCCC3 42.4%, CCOC(=O)Cc1ccc(NC(=O)N2CC(C)Oc3ccc(Cl)cc32)cc1 (configuration not stated) -17.4%, COc1cc2nc(NCc3ccccc3)n3nc(-c4ccccc4)nc3c2cc1OC -2.68%, Cc1nc2ccn(Cc3cccs3)c(=O)c2cc1C(=O)N1CCN(c2ccccc2)CC1 -9.83%, O=C(Nc1cccc(Br)c1)c1cc(-c2ccc3c(c2)OCCO3)on1 -27.7%, Cc1ccccc1CNCCSc1nnnn1-c1ccccc1 -9.01%, Cc1ccc2c(c1)N(CC(=O)NCCCN1CCCCC1C)C(=O)c1cccnc1O2 (configuration not stated) -3.89%, Cc1ccc2c(c1)N(S(=O)(=O)c1ccc3c(c1)NC(=O)CC(=O)N3)CCO2 2.51%, COc1ccc(-n2c(=O)c3ccc(C(=O)NCc4ccc(C)cc4)cc3n(Cc3ccc(C)cc3)c2=O)cc1 -15.6%, Cc1nc2nc(SCC(=O)N(Cc3ccccc3)C(C)C)nn2c(C)c1Cc1ccccc1Cl -16.1%, Cc1cc(C)c2sc(N3CCN(C(=O)C4CC4)CC3)nc2c1 0%, COc1ccc(Oc2nc3c(C)cccn3c(=O)c2/C=C(\C#N)c2nc3ccccc3[nH]2)cc1 1.3%, CCc1ccc2ncc3c(-c4ccc(C)cc4)nn(CC(=O)Nc4ccc(C)cc4)c3c2c1 12.3%, Cc1cc(C)c(NC(=O)Cn2c(=O)n(-c3ccc(F)cc3)c(=O)c3c(C)c(C(=O)N(C)C)sc32)c(C)c1 -17.7%, COC(=O)c1cc2occc2n1Cc1nc(-c2cccc(Br)c2)oc1C 2.92%, COc1ccc(C(=O)c2sc(Nc3cc(Cl)ccc3C)nc2N)cc1OC -6.73%, COc1ccc(C(=O)Nc2ccccc2-c2nc3ccccc3s2)c(OC)c1 -25%, CCOC(=O)c1cnc2ccc(Cl)cc2c1Nc1ccc(OCC)cc1 -40.2%, Cc1cccn2c(=O)cc(COc3cccc(NC(=O)COc4ccccc4)c3)nc12 13%, COc1cccc(-c2nc3c(c(SCC(=O)Nc4cc(C)ccc4C)n2)Cc2c(CO)cnc(C)c2O3)c1 -22.5%, CC(=O)c1ccc(NC(=O)CCc2nc(-c3ccc(C)cc3)no2)cc1 -14.5%, CC(=O)c1ccc(NC(=O)CSc2nc(C3CCCC3)nc3c2c(=O)n(C)c(=O)n3C)cc1 -4.67%, Cc1nc(-n2nc(C)c(CCC(C)C)c2C)sc1C(=O)Nc1ccc(Br)cc1 -8.71%, COc1ccc(CCNC(=O)CCCn2c(SCC(N)=O)nc3cc4c(cc3c2=O)OCO4)cc1OC -18.1%, CCOC(=O)N1CCc2c(sc3c2c(=O)n(Cc2ccccc2)c(=O)n3Cc2ccc(C)cc2)C1 -4.14%, COc1ccc(CNC(=O)C2=C(C)C(=O)OC23CCN(C(C)=O)CC3)cc1 -3.98%, CCOc1ccccc1CNC(=O)c1ccc(Cn2c(SCc3ccccc3)nc3cccnc32)cc1 0.198%, CC(C)OC(=O)/C(C#N)=C/c1ccc(-c2ccc(Cl)c(Cl)c2)o1 -13.7% [at 11.5 µM], Fc1ccc(N2CCN(Cc3cccn3-c3nnc(N4CCN(C5CCCCC5)CC4)s3)CC2)cc1 -2.3%, Cc1ccc(NC(=O)C2CCCN(c3cnccn3)C2)c(C)c1 (configuration not stated) 16.5%, Nc1ncnc2nc[nH]c12 14.8%, Cc1cccc(C)c1NC(=O)CCS(=O)(=O)c1cccc2nonc12 -4.37%, CCOC(=O)c1ccc(NC2=CC(c3ccc(F)cc3)N(c3ccc(C(=O)OCC)cc3)C2=O)cc1 (configuration not stated) 2.14%, CCOc1ccccc1NC(=O)c1cc2c(=O)n(Cc3cccnc3)ccc2nc1C -0.774%, CCCSc1nc2sc3c(c2c(=O)n1-c1cccc(Br)c1)CC(C)(C)OC3 4.94%, Cc1ccccc1Cn1c(SCc2ccc(C(=O)NC3CCCC3)cc2)nc2ccncc21 -2.54%, COc1ccccc1CNC(=O)CCNS(=O)(=O)c1cccc2nsnc12 -2.81%, Cc1nc2c(c(C)nn2-c2ccccc2)c(C)c1CCC(=O)NCCc1ccc(Cl)cc1 5.09%, COc1cccc(NC(=O)N2CCN(C(=O)c3nsc4ccccc34)CC2)c1 -21.6%, COc1ccc(NC(=O)N2CCN3CCCCC3C2)cc1OC (configuration not stated) -4.89%, COc1cc(C2NC(=O)c3c(sc4c3CCN(C)C4)N2)ccc1OC(=O)c1ccccc1 (configuration not stated) 64.5%, Cc1ccc(S(=O)(=O)c2nnn3c2nc(NCc2ccccc2Cl)c2sccc23)cc1 -4.87%, CCOC(=O)c1ccc(NC(=O)c2nn(C)c3c2COc2ccccc2-3)cc1 -16.1%, CC(C)c1ccc(OCc2cc(=O)n3c(-c4ccccc4)csc3n2)cc1 -16.1%, COc1cc(-c2cc(OC)c3c(C)oc(C)c3c(=O)c2)ccc1OC(=O)c1cccc(Cl)c1 -7.99%, COc1ccc(NC(=O)CCCN2C(=O)COc3ccc(C)cc32)cc1OC -29.9%, O=C(Cn1c(=O)n(-c2ccc(Cl)cc2)c(=O)c2c3c(sc21)CCC3)c1ccccc1 -11.2%, CCCCN1CCCC[C@H]1C(=O)Nc1c(C)cccc1C -9.58%, CC(C)(C)OC(=O)N1CCC(c2c(C(=O)N3CCN(C(=O)c4ccco4)CC3)cnn2-c2ccccc2Cl)CC1 -15%, COCCCNC(=O)c1ccc2c(c1)NC(=O)C(C(C)C)N2 (configuration not stated) -13.4%, CCc1ccc(S(=O)(=O)c2nnn3c2nc(NCCNC(C)=O)c2cc(Cl)ccc23)cc1 -13%, CC(C)(C)NC(=O)c1oc2ccccc2c1NC(=O)c1ccc(F)cc1 -17.9%

Potency, active:
Cc1nc2cc(-c3ccccc3)nn2c(C)c1CCC(=O)NCc1cccc(Cl)c1 12.6 µM, COc1ccccc1N=c1scc(-c2ccc(S(=O)(=O)N3CCCC3)cc2)n1C 3.16 µM
